# According to the antibiotic and cytotoxicity screens of Wong et al. (2023):
# This is one part of the list.
# Tested on: HepG2
# Test: cytotoxicity call (relative viability < 0.9)
# Details: 10 µM
row,SMILES,cytotoxicity call
1,C[C@@H]1CN([C@H](C)CO)C(=O)Cc2cc(NC(=O)Cn3cnnn3)ccc2O[C@@H]1CN(C)CC1CC1,inactive
2,O=C(O)CCCCCCC(=O)Nc1ccc([C@H]2O[C@@H](CSc3nc(-c4ccccc4)c(-c4ccccc4)o3)C[C@H](c3ccc([N+](=O)[O-])cc3)O2)cc1,inactive
3,CN(C)[C@@H]1C(=O)[C@@H](C(N)=O)C(=O)[C@@]2(O)C(=O)[C@@H]3C(=O)c4c(O)c(NC(=O)CN5CCCC5)cc(F)c4C[C@H]3C[C@@H]12,inactive
4,O=C1CCOC1,inactive
5,C[C@@H]1CN([C@H](C)CO)C(=O)CCCn2nncc2CO[C@@H]1CN(C)Cc1cccc2c1OCCCO2,inactive
6,Nc1nnc(-c2ccc([N+](=O)[O-])o2)o1,inactive
7,C[C@@H]1CCCCO[C@H](CN(C)S(=O)(=O)c2ccc(F)cc2)[C@@H](C)CN([C@@H](C)CO)C(=O)c2cc(NS(=O)(=O)c3ccc(Cl)cc3)ccc2O1,inactive
8,CC(C)c1cc(N2CC[C@@H](N)C2)nc(N)n1,inactive
9,Cc1ccc(S(=O)(=O)Nc2ccc3c(c2)C(=O)N([C@H](C)CO)C[C@H](C)[C@H](CN(C)S(C)(=O)=O)OCCCC[C@@H](C)O3)cc1,inactive
10,CCCCCCCCCCCCCCCCCC(=O)OC[C@@H](COP(=O)(O)OCC[N+](C)(C)C)OC(=O)CCCCCCCCCCCCCCCCC,inactive
11,C[C@@H]1CN([C@@H](C)CO)C(=O)c2cc(NC(=O)Nc3ccccc3)ccc2O[C@H]1CN(C)S(=O)(=O)c1cn(C)cn1,inactive
12,CO[C@@H]1CN(C)C(=O)c2ccc(NC(=O)C3CC3)cc2OC[C@@H](C)N(C(=O)CN2CCOCC2)C[C@@H]1C,inactive
